For three substances, binding results are on record in publication PMC7332293.

Chains of the proteins cited; added tags and fusions are not shown. Lines headed by an entry give the natural chain unless they say otherwise; changes in a name come on top.
UniProt Q9BY78: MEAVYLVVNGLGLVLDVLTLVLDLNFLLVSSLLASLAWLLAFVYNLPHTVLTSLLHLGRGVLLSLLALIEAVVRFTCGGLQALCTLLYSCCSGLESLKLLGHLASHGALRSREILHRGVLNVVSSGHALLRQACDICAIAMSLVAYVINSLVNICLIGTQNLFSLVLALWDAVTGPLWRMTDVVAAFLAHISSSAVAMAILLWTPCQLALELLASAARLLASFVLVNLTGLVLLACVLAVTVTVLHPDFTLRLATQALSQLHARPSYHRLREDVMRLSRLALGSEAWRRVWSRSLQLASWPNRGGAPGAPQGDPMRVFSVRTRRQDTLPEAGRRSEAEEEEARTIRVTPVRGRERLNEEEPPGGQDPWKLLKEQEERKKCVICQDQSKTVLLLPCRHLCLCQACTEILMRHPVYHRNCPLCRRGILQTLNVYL

Test [1] addresses FH-RNF26_(Y432A) (human) (UniProt Q9BY78). Kind of test: co-IP; DOX-induced Flp-In293 cells stably expressing FH-RNF26; anti-FLAG beads; endogenous RNF26 detected by western blot.
In test [2] the target is T1, S-tagged TMEM43 (human) (UniProt Q9BTV4).
T1 sequence: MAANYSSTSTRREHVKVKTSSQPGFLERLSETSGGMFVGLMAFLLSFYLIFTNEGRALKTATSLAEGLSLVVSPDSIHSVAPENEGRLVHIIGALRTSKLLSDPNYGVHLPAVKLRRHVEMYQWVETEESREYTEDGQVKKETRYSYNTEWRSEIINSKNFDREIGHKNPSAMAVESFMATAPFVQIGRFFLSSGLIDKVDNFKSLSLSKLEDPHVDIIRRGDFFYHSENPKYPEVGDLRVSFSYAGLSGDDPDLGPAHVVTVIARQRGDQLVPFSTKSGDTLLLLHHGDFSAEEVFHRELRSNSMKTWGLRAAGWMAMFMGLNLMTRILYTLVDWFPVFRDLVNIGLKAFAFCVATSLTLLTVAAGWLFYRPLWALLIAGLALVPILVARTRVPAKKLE
Kind of test: pull-down; S-tagged HCIP transiently expressed in FH-RNF26 Y432A Flp-In293 cells; lysates in 1% TX-100; S-protein agarose; western blot (anti-S-tag, anti-HA).

Test [3] has as its target T1, S-tagged TMEM43 (human). Put plainly: pull-down; S-tagged HCIP transiently expressed in Flp-In293 cells stably expressing the FH-tagged E3; lysates in 1% LMNG; S-protein agarose; western blot.
Test [4] concerns the target T2, S-tagged UBXD8 (UniProt Q96CS3).
T2 sequence: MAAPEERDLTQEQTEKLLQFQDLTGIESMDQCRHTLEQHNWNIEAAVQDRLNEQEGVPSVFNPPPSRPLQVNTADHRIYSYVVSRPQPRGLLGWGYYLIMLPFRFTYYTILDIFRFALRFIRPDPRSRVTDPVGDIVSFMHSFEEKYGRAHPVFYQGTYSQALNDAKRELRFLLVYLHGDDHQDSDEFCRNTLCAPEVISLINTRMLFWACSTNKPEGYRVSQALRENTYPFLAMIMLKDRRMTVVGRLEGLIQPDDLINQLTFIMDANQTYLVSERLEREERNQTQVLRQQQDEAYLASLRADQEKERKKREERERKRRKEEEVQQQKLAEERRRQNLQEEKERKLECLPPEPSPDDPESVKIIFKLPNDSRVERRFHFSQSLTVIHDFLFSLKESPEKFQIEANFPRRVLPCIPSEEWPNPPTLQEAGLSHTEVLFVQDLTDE
Described as above.

Test [5] concerns the target T3, S-tagged AUP1 (UniProt Q9Y679).
T3 sequence: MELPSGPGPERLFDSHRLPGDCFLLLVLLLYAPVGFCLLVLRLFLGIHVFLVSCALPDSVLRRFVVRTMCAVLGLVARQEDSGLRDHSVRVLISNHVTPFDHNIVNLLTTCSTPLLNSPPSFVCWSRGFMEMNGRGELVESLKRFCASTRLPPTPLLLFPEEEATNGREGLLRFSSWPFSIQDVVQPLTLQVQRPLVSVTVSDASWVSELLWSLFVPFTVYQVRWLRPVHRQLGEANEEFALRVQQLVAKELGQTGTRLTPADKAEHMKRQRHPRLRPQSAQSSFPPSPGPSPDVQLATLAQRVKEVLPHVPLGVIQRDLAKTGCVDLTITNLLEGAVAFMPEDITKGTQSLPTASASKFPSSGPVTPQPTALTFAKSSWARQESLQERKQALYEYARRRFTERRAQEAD
The test is described as above.

Results are given in words; binding and its absence hold for the method and conditions named. Binding seen in cells or lysates may run through a third protein. Some results given as binding are weak or reduced against the parent protein; the word gives no strength. For part of these data: Where a sequence is shown, tags or fusion partners need not be part of it.

In the case of “endogenous RNF26 (from UniProt Q9BY78 1-433) (enzyme)”, the binding entry in test [1] is recorded as “binds”.
For the substance “FH-RNF26_(Y432A) (from UniProt Q9BY78 1-433) (enzyme)”, the binding entry in test [2] and in test [3] was “binds” in each case.
In the case of “FH-RNF26WT (from UniProt Q9BY78 1-433) (enzyme)”, the binding entry in test [4], in test [5] and in test [3] was “binds” each time.
